Some of the results follow. At the low end of the ranking the order means little.

In the experiment the target is MAX:MAX (p21) (UniProt P61244-2). Briefly: protein-binding microarray (anti-MAX antibody). The settings on record: PBM: 15 mM Tris-HCl pH 7.5, 100 mM KCl, 0.075% NP40, 7.5 mM beta-mercaptoethanol, 375 ng/ul BSA, 8 ng/ul poly(dA-dT):(dA-dT), 550 ng complex, 60 min, room …; high values mean tight binding; double strand, one strand shown; sequences stand for … in CCGGC…TTAATAGCTAAGATTACTATATCGACG
In turn, TGACCGTTTGTA displayed a binding signal (log2 normalized fluorescence) of -0.528. As to TGATCATATGTA, the binding signal (log2 normalized fluorescence) turned out to be 1.98. TGACATCTGGTA returned a binding signal (log2 normalized fluorescence) of 0.652.

In turn, TGATTTCCTGTA returned a binding signal (log2 normalized fluorescence) of -1.13. To TCTAACGTGGTA belongs 2.94; to TGAAAGTTTGTA, -0.749.

TGACACGGAATA returned a binding signal (log2 normalized fluorescence) of 0.766. TGACGCACAGTA came in with a binding signal (log2 normalized fluorescence) of 0.339.

Turning to TGAATAAGGGTA, the binding signal (log2 normalized fluorescence) is -0.853. For TGAGCGCGCGTA the value was 0.952; for ATTTACAAAGCA, 0.561.

In the case of TGAAGTCCAGTA, the binding signal (log2 normalized fluorescence) is -0.519. For TGACGATTCGTA the value was -0.779. For TGAGGTCCAGTA the value was -0.896; for TGAAATGTGGTA, 1.55. To TTACACGTGCTA belongs 3.57. As for TGATTGAAAGTA, the binding signal (log2 normalized fluorescence) was -0.975. In turn, TGATATGTTGTA showed a binding signal (log2 normalized fluorescence) of -0.671. TGAAGCCTGGTA: the binding signal (log2 normalized fluorescence) came out at 0.476. As to TGACCTTACGTA, the binding signal (log2 normalized fluorescence) is -0.175.

TGACCGTTCGTA displayed a binding signal (log2 normalized fluorescence) of -0.456. Sequence TGATCGGTAGTA displayed a binding signal (log2 normalized fluorescence) of -0.841.

As for TGACACGTTAAA, the binding signal (log2 normalized fluorescence) came to 2.15. For TGATCTTGTGTA the value was -0.098; for TGACGGGGAGTA, -0.0998; for TGATAGTTCGTA, -1.05. To TGACCTGAAGTA belongs -0.283; to TGAAGGTGTGTA, 0.672.

On to TGACGGCATGTA, for which the binding signal (log2 normalized fluorescence) amounted to 2.78. For TGACACGTCTTG the value was 1.14. For TGATAGTTTGTA the value was -1.12. To TGCCACGCGGAA belongs 3.15. TGATGCTTAGTA came in with a binding signal (log2 normalized fluorescence) of -0.252. With TGATGTAACGTA, the binding signal (log2 normalized fluorescence) was -0.0372. For TGAGACGTGGTA the value was 1.31. To TGAGTCGAGGTA belongs -0.576.

TGATAAACGGTA registered a binding signal (log2 normalized fluorescence) of -0.892. In the case of TGAAAGATCGTA, the binding signal (log2 normalized fluorescence) is -0.72.

Sequence TGATGATCTGTA returned a binding signal (log2 normalized fluorescence) of -0.226. TGAAGAAGGGTA gave a binding signal (log2 normalized fluorescence) of -0.89. For TGAAGTTATGTA the value was -0.594. The sequence TGATATGACGTA came in with a binding signal (log2 normalized fluorescence) of -0.457.

TGACATGCAGTA: the binding signal (log2 normalized fluorescence) was determined as 2.07. For TGTACCGTGGTA the value was 1.7. On to TGGCACTTGGTT, for which the binding signal (log2 normalized fluorescence) is -0.0227. For TGATGTAATGTA the value was -0.17; for TGAAACTGGGTA, -0.857; for TGAACAGTCGTA, -0.545. In turn, TGACTTCCGGTA registered a binding signal (log2 normalized fluorescence) of -0.852. For TGCCACGAGGAA the value was 3.34; for TGAAACAGTGTA, -0.473.

On to TGAATCACAGTA, for which the binding signal (log2 normalized fluorescence) was -0.379. TGACCAGGTGTA gave a binding signal (log2 normalized fluorescence) of 1.54.

TGATATAGAGTA registered a binding signal (log2 normalized fluorescence) of -0.807. Take TGAGCGCTGGTA: the binding signal (log2 normalized fluorescence) is -0.393.

Consider TGACAATTCGTA, for which the binding signal (log2 normalized fluorescence) is -0.375. To TGAGTATCTGTA belongs -1.18; to TGAATATCAGTA, -0.969.

Turning to TGACTGGGAGTA, the binding signal (log2 normalized fluorescence) was -0.653.

The sequence TGATCTCTAGTA returned a binding signal (log2 normalized fluorescence) of -1.13. To TGAGCTTCAGTA belongs -0.854. For TGAATCAGAGTA the value was -0.19. On to TGACTATTGGTA, for which the binding signal (log2 normalized fluorescence) is -0.947. Take TGATACGCGGTA: the binding signal (log2 normalized fluorescence) was -0.535. For TGATTGGGCGTA the value was -0.9; for TGAAATAAGGTA, -0.429. As for TGAGCAAAGGTA, the binding signal (log2 normalized fluorescence) was -0.975. As for TGACATGCTGTA, the binding signal (log2 normalized fluorescence) came to 2.75. To TGACACGTACTA belongs 1.24; to TGAAGCACAGTA, -0.0754; to TGATCGCTCGTA, -0.768.

For the sequence TGAGTATAAGTA, the binding signal (log2 normalized fluorescence) is -1.2. To TGACTCAAAGTA belongs -0.826; to TGAACCAATGTA, -0.385; to TGACGCATTGTA, 1.29. TGAGACCACGTA registered a binding signal (log2 normalized fluorescence) of 0.49. The sequence TGAGGCTACGTA returned a binding signal (log2 normalized fluorescence) of -1.2.

Consider AGATACGTGGTA, for which the binding signal (log2 normalized fluorescence) is 1.61. For TGAATAACAGTA the value was -0.765.

The sequence TGATGTATGGTA registered a binding signal (log2 normalized fluorescence) of 0.355. For TGACATGTGGAA the value was 3.11. Consider TGACACGTGAAT, for which the binding signal (log2 normalized fluorescence) was found to be 3.14. For TGAGACCGGGTA the value was -0.913; for TGAACACAGGTA, 0.6. TGAGGTAATGTA returned a binding signal (log2 normalized fluorescence) of -0.585. As for TGATCTCGGGTA, the binding signal (log2 normalized fluorescence) is -0.679. Turning to TGAGTTAGCGTA, the binding signal (log2 normalized fluorescence) is -0.884. For TGATCGTTTGTA the value was -0.662; for TTAAACGTGGTA, 2.95. To TGACAGCCCGTA belongs 0.24; to TGAAGAAATGTA, -0.639; to TGAGCATATGTA, 1.65. Regarding TGCCGCGTGTTA, the binding signal (log2 normalized fluorescence) came to 2.98. To TGATGGGTTGTA belongs -0.142; to CCCCACGTGGTA, 3.4; to TGATATTTGGTA, -1.42. To TGACGCGCTGTA belongs 0.832; to TGATTTAATGTA, -0.78.

In turn, TCCCACCTGGTA yielded a binding signal (log2 normalized fluorescence) of 2.61. With TGACCCGTTGTA, the binding signal (log2 normalized fluorescence) worked out at 0.101. The sequence TGTCACGTTGTA yielded a binding signal (log2 normalized fluorescence) of 3.16.

As to TGACACGTGAGA, the binding signal (log2 normalized fluorescence) was 3.29.

Take TGACCAGATGTA: the binding signal (log2 normalized fluorescence) worked out at 0.615.

In the case of TGAGATGCCGTA, the binding signal (log2 normalized fluorescence) is -0.54. For TAACACCTGGCA the value was 2.87.

Turning to TGATGTGCGGTA, the binding signal (log2 normalized fluorescence) is 0.443.

On to TGCGGCGTGGTA, for which the binding signal (log2 normalized fluorescence) turned out to be 2.97.

In turn, TGAACAAGAGTA returned a binding signal (log2 normalized fluorescence) of -0.616. For TGAGGCGTCGTA the value was -0.641.

Regarding TGAAAATGTGTA, the binding signal (log2 normalized fluorescence) turned out to be 1.14. TGATTGGGTGTA yielded a binding signal (log2 normalized fluorescence) of -0.803. For TGAGCCATAGTA the value was -1.04. In turn, TGACGCCCGGTA registered a binding signal (log2 normalized fluorescence) of -0.0843. Turning to TGACTTGATGTA, the binding signal (log2 normalized fluorescence) was -0.32. As for TGAAATGGTGTA, the binding signal (log2 normalized fluorescence) was -0.154. TGAGTGGTCGTA yielded a binding signal (log2 normalized fluorescence) of 0.559.

TGAGATATAGTA yielded a binding signal (log2 normalized fluorescence) of -0.876. For TGATCGGACGTA the value was -0.968; for TGACATAACGTA, 0.0875; for TGAAAGAGAGTA, -0.838.

Turning to TCACACGTGATA, the binding signal (log2 normalized fluorescence) was found to be 3.31. TGAGTGGTAGTA returned a binding signal (log2 normalized fluorescence) of 0.0367. The sequence TGAACATAAGTA came in with a binding signal (log2 normalized fluorescence) of 0.21. To TGAAGATTTGTA belongs -1.05; to CGGCAAGTGGTA, 1.17. For TCACACTCGGTA the value was 1.6.

As to TGAAATAGCGTA, the binding signal (log2 normalized fluorescence) was -0.767.

In the case of TGAGTCAGCGTA, the binding signal (log2 normalized fluorescence) is -0.508. For TGATTGACTGTA the value was -0.701; for TGACGGTCTGTA, -0.396; for TGATACGAGGTG, -0.118. To TGATTATAAGTA belongs -1.18.

Consider TGACACTTGTTA, for which the binding signal (log2 normalized fluorescence) turned out to be 0.48. With TGAGCCCGTGTA, the binding signal (log2 normalized fluorescence) is 0.977. With TGAACTAAGGTA, the binding signal (log2 normalized fluorescence) is -0.746. To TGATATTAAGTA belongs -1.18. As for TGAGTCGATGTA, the binding signal (log2 normalized fluorescence) is -0.987.

For the origin of these results see article PMC5515408.
